Reference: the supplement of paper PMC6135742
“And” between values parts separate entries of the source, which are not always exact repeats. Equal values may be shown once. Where a name gives a salt, the structure may show the parent alone. ± gives the standard deviation of the averaged measurements. Whole data set: some 2,600 compounds, median “MBP+ mature oligodendrocyte number relative to DMSO vehicle control” near -0.34, cut for the highest 2% near 13. Some of the results follow.

Test system: jimpy (Plp1 jimpy) mouse iPSC-derived oligodendrocyte progenitor cells
Experiment: MBP+ mature oligodendrocyte number relative to DMSO vehicle control (SDs above negative control mean); higher = more surviving jimpy oligodendrocytes (rescue)
Conditions: 10 µM; 3 days
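Note: 10 µM single dose with 3-day oligodendrocyte differentiation.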

SMILES	MBP+ mature oligodendrocyte number
CC(C)C[C@@H](C(=O)N[C@H](C(=O)OC1CCCC1)c1ccccc1)[C@H](O)C(=O)NO [Tosedostat (CHR2797)]	-4.88
CC(C(=O)O)c1ccc2c(c1)[nH]c1ccc(Cl)cc12 (configuration not stated) [Carprofen]	3.53
Cc1cccc(C)c1NC(=O)C(C)N (configuration not stated) [Tocainide hydrochloride]	0.398
C=CCc1cccc(/C=N/NC(=O)CN2CCN(Cc3ccccc3)CC2)c1O	-4.93 ± 1.5
O=C1c2c(O)cccc2C([C@@H]2O[C@H](CO)[C@@H](O)[C@H](O)[C@H]2O)c2cc(CO)cc(O)c21 (some centres not stated) [Aloin]	-4.7
O=C(Nc1cccc(C(F)(F)F)c1)Nc1cc(S(=O)(=O)NC2CC2)ccc1-c1ccsc1	18.2
CC[N+](CC)(CC)CCOc1ccc(/C=C/c2ccccc2)cc1	< -3.97
Cc1ccccc1C(=O)Nc1ccc(C(=O)N2CCCC(O)c3cc(Cl)ccc32)c(C)c1 (configuration not stated) [Tolvaptan]	4.98
CC(=O)O[C@H]1CC[C@@]2(C)C(=CC[C@@H]3[C@@H]2CC[C@]2(C)C(c4cccnc4)=CC[C@@H]32)C1 [Abiraterone Acetate]	-0.0525
CN(C)C(=O)C(CCN1CCC(O)(c2ccc(Cl)cc2)CC1)(c1ccccc1)c1ccccc1 [Loperamide hydrochloride]	-3.62
CN(C)C(=O)C(CCN1CCC(O)(c2ccc(Cl)cc2)CC1)(c1ccccc1)c1ccccc1 [Loperamide HCl]	-4.75
Cc1c(OCC(F)(F)F)ccnc1C[S@@+]([O-])c1nc2ccccc2[nH]1 [Dexlansoprazole]	17.2
CC(C(=O)O)c1ccc(-c2ccccc2)c(F)c1 (configuration not stated) [Flurbiprofen]	-0.0169
COc1cc2c(N3CCN(C(=O)Nc4ccc(OC(C)C)cc4)CC3)ncnc2cc1OCCCN1CCCCC1 [Tandutinib (MLN518)]	-5.91
NC(=O)c1cn(Cc2c(F)cccc2F)nn1 [Rufinamide]	0.263 ± 0.28
Cc1cc(O)c2c(c1)C(=O)c1cccc(O)c1C2=O [Chrysophanic Acid]	1.29
NC(N)=NC(N)=Nc1cccc(Cl)c1 [1-(m-Chlorophenyl)-biguanide hydrochloride]	0.973
Nc1nc(CC(=O)Nc2ccc(CCNC[C@H](O)c3ccccc3)cc2)cs1 [Mirabegron]	-3.47
NC[C@@H]1O[C@H](O[C@H]2[C@@H](O)[C@H](O[C@@H]3[C@@H](O)[C@H](N)C[C@H](N)[C@H]3O[C@H]3O[C@H](CO)[C@@H](O)[C@H](O)[C@H]3N)O[C@@H]2CO)[C@H](N)[C@@H](O)[C@@H]1O [Paromomycin sulfate]	0.396
CC[C@]1(O)C[C@H]2CN(CCc3c([nH]c4ccccc34)[C@@](C(=O)OC)(c3cc4c(cc3OC)N(C=O)[C@H]3[C@@](O)(C(=O)OC)[C@H](OC(C)=O)[C@]5(CC)C=CCN6CC[C@]43[C@@H]65)C2)C1 [Vincristine sulfate]	-3.78
CC[C@]1(O)C[C@H]2CN(CCc3c([nH]c4ccccc34)[C@@](C(=O)OC)(c3cc4c(cc3OC)N(C=O)[C@H]3[C@@](O)(C(=O)OC)[C@H](OC(C)=O)[C@]5(CC)C=CCN6CC[C@]43[C@@H]65)C2)C1 [Vincristine]	< -6.7
COc1ccccc1OCC(O)CO (configuration not stated) [Guaifenesin]	-0.737
Cc1cc(=O)[nH]c(=S)[nH]1 [Methylthiouracil]	1.53
CC(=O)[C@H]1CC[C@H]2[C@@H]3C=CC4=CC(=O)CC[C@@]4(C)[C@@H]3CC[C@]12C [Dydrogesterone]	0.153

SMILES	MBP+ mature oligodendrocyte number
CN1[C@@H]2CC[C@H]1C[C@@H](OC(=O)c1c[nH]c3ccccc13)C2 [Tropisetron]	1.96
COc1ccccc1N1CCN(CCCCN2C(=O)c3ccccc3C2=O)CC1 [NAN-190 hydrobromide]	-1.46
Cc1cccc(C)c1OCC(C)N (configuration not stated) [Mexiletene hydrochloride]	-0.441
Cc1cccc(C)c1OCC(C)N (configuration not stated) [Mexiletine HCl]	1.76
COc1ccc(/C=C/C(=O)Nc2ccccc2C(=O)O)cc1OC [Tranilast]	1.25 ± 0.85
CCN(CC)CCNC(=O)c1c(C)[nH]c(/C=C2\C(=O)Nc3ccc(F)cc32)c1C [Sunitinib Malate]	-6.61
CCN(CC)CCNC(=O)c1c(C)[nH]c(/C=C2\C(=O)Nc3ccc(F)cc32)c1C [Sunitinib malate]	-4.36
CCN(CC)Cc1ccc(C(=O)N(CCc2ccccc2OC)[C@@H]2CCNC2)cc1	-3.89
CCOC(=O)C1=C(COCCN)NC(C)=C(C(=O)OC)C1c1ccccc1Cl (configuration not stated) [Amlodipine]	< -5.15
Oc1ccc(/C=C/c2cc(O)cc(O)c2)cc1 [Resveratrol]	2.99 ± 2.1
Cc1cc(/C=C/C#N)cc(C)c1Nc1ccnc(Nc2ccc(C#N)cc2)n1 [Rilpivirine]	-6.18
Cc1c(N(C)C)c(=O)n(-c2ccccc2)n1C [Amidopyrine]	0.501
CCOc1cc2ncc(C#N)c(Nc3ccc(F)c(Cl)c3)c2cc1NC(=O)/C=C/CN(C)C [Pelitinib (EKB-569)]	< -6.7
CCCc1c(-c2ccc(O)cc2)nn(-c2ccc(O)cc2)c1-c1ccc(O)cc1 [1,3,5-tris(4-hydroxyphenyl)-4-propyl-1H-pyrazole]	4.9
C=C1C(=O)[C@]23[C@H](O)[C@H]1CC[C@H]2[C@@]12CO[C@]3(O)[C@@H](O)[C@@H]1C(C)(C)CC[C@@H]2O [Oridonin]	< -4.81
OC(CNCC(O)C1CCc2cc(F)ccc2O1)C1CCc2cc(F)ccc2O1 (configuration not stated) [Nebivolol]	-5.06
CC[C@H](C)[C@H](N)C1=N[C@H](C(=O)N[C@@H](CC(C)C)C(=O)N[C@H](CCC(=O)O)C(=O)N[C@H](C(=O)N[C@H]2CCCCNC(=O)[C@H](CC(N)=O)NC(=O)[C@@H](CC(=O)O)NC(=O)[C@H](Cc3cnc[nH]3)NC(=O)[C@@H](Cc3ccccc3)NC(=O)[C@H]([C@@H](C)CC)NC(=O)[C@@H](CCCN)NC2=O)[C@@H](C)CC)CS1 [Bacitracin]	0.491
O=C(CCc1ccc(O)cc1)c1c(O)cc(O)cc1O [Phloretin]	0.578 ± 1.2
CNCc1ccc(-c2cc(-c3nc(-c4ccc(S(=O)(=O)C(C)C)cc4)cnc3N)on2)cc1	< -6.35
CN1CCN(CCCN2c3ccccc3Sc3ccc(C(F)(F)F)cc32)CC1 [Trifluoperazine dihydrochloride]	-3.67
CN1CCN(CCCN2c3ccccc3Sc3ccc(C(F)(F)F)cc32)CC1 [Trifluoperazine 2HCl]	< -6.01
CC(S)C(=O)NCC(=O)O (configuration not stated) [Tiopronin]	-0.557
CNC[C@H](O)c1ccc(O)c(O)c1 (racemic) [(±)-Epinephrine hydrochloride]	0.0316
CNC[C@H](O)c1ccc(O)c(O)c1 [(-)-Epinephrine bitartrate]	-0.753

SMILES	MBP+ mature oligodendrocyte number
CNC[C@H](O)c1ccc(O)c(O)c1 [Epinephrine HCl]	1.29
CNC[C@H](O)c1ccc(O)c(O)c1 [Epinephrine Bitartrate]	1.23
C=CC(=O)Nc1cc2c(Nc3ccc(F)c(Cl)c3)ncnc2cc1OCCCN1CCOCC1 [Canertinib (CI-1033)]	-6.61
O=C(NCc1ccccc1)c1csc(Nc2ccncn2)n1 [Thiazovivin]	-3.47
O=C(Nc1ccccc1C(=O)NC1CCCCNC1=O)c1cc2ccccc2s1 (configuration not stated)	0.61
CCc1cc(Nc2nccc(-c3c(-c4ccc(OC)c(C(=O)Nc5c(F)cccc5F)c4)nc4ccccn34)n2)c(OC)cc1N1CCC(N2CCN(S(C)(=O)=O)CC2)CC1	9.27
Nc1ccn([C@H]2CC[C@@H](CO)O2)c(=O)n1 [Zalcitabine]	-0.107
Nc1ccn([C@H]2CC[C@@H](CO)O2)c(=O)n1 [2',3'-dideoxycytidine]	-1.22
CC(=O)c1ccc2c(c1)N(CCCN(C)C)c1ccccc1S2 [Acepromazine maleate]	-3.39
COc1cccc(-c2cc(=O)c3ccccc3o2)c1N	-1.46 and -3.12
CNC(=O)c1cccc(-c2ccc3c(N4CCOC[C@@H]4C)nc(N4CCOC[C@@H]4C)nc3n2)c1	< -6.01
C=CCNC(N)=S [Allylthiourea]	8.09
CN(C)CCOC(C)(c1ccccc1)c1ccccn1 (configuration not stated) [Doxylamine Succinate]	-1.2
CN(C)CCOC(C)(c1ccccc1)c1ccccn1 (configuration not stated) [Doxylamine succinate]	0.0839
C[C@@H](O)[C@H]1C(=O)N2C(C(=O)O)=C(S[C@@H]3CN[C@H](CNS(N)(=O)=O)C3)[C@H](C)[C@H]12 [Doripenem Hydrate]	-2.33
COc1cc2nccc(Oc3ccc(NC(=O)Nc4cc(C)on4)c(Cl)c3)c2cc1OC [Tivozanib (AV-951)]	-6.44
CC(C)(C#N)c1cc(Cn2cncn2)cc(C(C)(C)C#N)c1 [Anastrozole]	0.458
C(=C\c1ccccc1)/CN1CCN(C(c2ccccc2)c2ccccc2)CC1 [Cinnarizine]	-1.1
C[C@]1(O)C[C@@H](c2nc(-c3ccc4ccc(-c5ccccc5)nc4c3)c3c(N)nccn32)C1 [OSI-906 (Linsitinib)]	< -6.7
C[C@@H]1CCO[C@H]2Cn3cc(C(=O)NCc4ccc(F)cc4F)c(=O)c(O)c3C(=O)N12	2.56
O=C(C1CCCCC1)N1CC(=O)N2CCc3ccccc3C2C1 (configuration not stated) [Praziquantel]	9.39 ± 15
Cc1nc(C#Cc2cccnc2)cs1 [MTEP hydrochloride]	-1.46
CNC(=O)c1cc(Oc2ccc(NC(=O)Nc3cc(C(C)(C)C)nn3-c3ccc4ncccc4c3)c(F)c2)ccn1 [DCC-2036 (Rebastinib)]	< -6.01
OC[C@H]1O[C@H](O[C@]2(CCl)O[C@H](CCl)[C@@H](O)[C@@H]2O)[C@H](O)[C@@H](O)[C@H]1Cl [Sucralose]	-0.269
